# Where “and” joins values, the source holds several entries; their conditions need not be identical. Identical values can stand only once. In all, about 110,000 compounds were measured (“z-score”: median about -0.1, highest 2% from about 2 on). Some of the results follow. Calls of active or inactive are those of the source.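 Rule for the calls: active = z-score in the third read window above 3 or below -3; inactive = the rest.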
# Biological target: Metabotropic glutamate receptor 8 (Rattus norvegicus) (UniProt P70579)
# Sequence of UniProt P70579 (P70579 whole entry, looked up): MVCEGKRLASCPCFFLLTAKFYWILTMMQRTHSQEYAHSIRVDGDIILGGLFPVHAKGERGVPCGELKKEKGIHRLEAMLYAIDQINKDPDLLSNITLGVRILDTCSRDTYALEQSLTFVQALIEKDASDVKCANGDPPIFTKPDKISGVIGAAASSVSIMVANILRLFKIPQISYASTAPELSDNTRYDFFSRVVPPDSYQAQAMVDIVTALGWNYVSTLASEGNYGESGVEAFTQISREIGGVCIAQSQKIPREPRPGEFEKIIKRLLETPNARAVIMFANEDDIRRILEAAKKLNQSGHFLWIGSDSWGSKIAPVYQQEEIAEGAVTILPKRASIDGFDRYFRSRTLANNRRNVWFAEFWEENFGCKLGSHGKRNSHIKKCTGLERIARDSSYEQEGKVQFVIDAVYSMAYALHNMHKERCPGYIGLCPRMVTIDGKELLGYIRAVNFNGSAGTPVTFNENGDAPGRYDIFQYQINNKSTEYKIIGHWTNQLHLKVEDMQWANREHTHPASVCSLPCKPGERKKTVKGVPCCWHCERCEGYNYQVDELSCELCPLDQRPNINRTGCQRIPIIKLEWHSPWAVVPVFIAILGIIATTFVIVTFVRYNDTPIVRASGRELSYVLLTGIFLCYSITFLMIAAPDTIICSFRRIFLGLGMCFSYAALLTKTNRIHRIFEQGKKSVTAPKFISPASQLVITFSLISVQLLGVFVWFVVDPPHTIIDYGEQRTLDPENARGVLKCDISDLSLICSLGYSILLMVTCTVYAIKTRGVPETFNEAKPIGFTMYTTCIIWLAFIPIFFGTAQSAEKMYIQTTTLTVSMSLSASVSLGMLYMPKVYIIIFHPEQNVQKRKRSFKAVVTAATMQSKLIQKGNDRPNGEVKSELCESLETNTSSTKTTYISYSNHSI
# Assay: rat mGluR8 modulators via GIRK flux, primary screen, cell-based, thallium flux, HTS (AID 488969)
# Conditions: HEK293 rat mGluR8, GIRK (G protein-gated inwardly rectifying potassium channel) thallium flux, FluoZin2; at 10 µM; stronger effect = higher value; submaximal glutamate (EC20) added with thallium
row,SMILES,z-score
1,COCCNC(=S)NC1CC2CCCC(C1)N2Cc1cccs1 (stereo not given),-0.161
2,Cc1cc(NCCCn2ccnc2)n2nc(C)c(-c3ccccc3)c2n1,-0.627
3,COCc1cc(=O)[nH]c(SCC(=O)Nc2ccccc2)n1,0.592
4,O=C(Cc1nn[nH]n1)NCCC1=CCCCC1,0.328
5,Cc1cc(NC(=O)CSc2nnc(-c3ccccc3)n2Cc2ccco2)no1,-0.599
6,COC(=O)c1ccc(CSc2nc(-c3ccc(OC)cc3)nc3c2c(=O)n(C)c(=O)n3C)o1,-0.0566
7,CC(=O)Nc1ccc(OCC(O)CN2CCN(c3ccc(C)c(Cl)c3)CC2)cc1 (stereo not given),0.331
8,Cc1c(Cl)cnc(NC(=O)COC(=O)c2ccc3ncsc3c2)c1Cl,-0.0663
9,CCCCC(=O)Nc1cccc(NC(=S)NC(=O)COc2ccccc2Cl)c1,0.162
10,CCCCCC(=O)NNC(=O)Nc1ccccc1,0.2
11,O=C1N(c2ccc(Cl)cc2)C(c2ccccc2)N2CCCN12 (stereo not given),-0.0124
12,CCOC(NC(=O)c1ccccc1)C(NC(=O)c1ccccc1)OCC (stereo not given),-0.184
13,COc1ccc(NC(=O)COC(=O)c2ncc(Cl)c(Cl)c2Cl)c(OC)c1,-0.122
14,O=C(NCc1cccnc1)c1ccc(S(=O)(=O)N2CCOCC2)cc1,0.181
15,O=C(Cn1nnc2ccccc21)OCC(=O)c1ccccc1,-0.385
16,COc1ccccc1NC(=O)c1nn(-c2cccc(C(F)(F)F)c2)ccc1=O,-0.287
17,O=c1c2ccccc2c(C=Nc2cccc(O)c2)c(O)n1-c1ccc2c(c1)OCO2,-0.281
18,O=C1Nc2ccccc2C12OCC1(CO2)COC2(OC1)C(=O)Nc1ccccc12 (stereo not given),active: 3.45
19,CCN(CC)S(=O)(=O)c1ccc(C(=O)Nc2cc3oc4ccccc4c3cc2OC)cc1,-0.275
20,Cc1cc(NC(=O)COc2ncnc3sc(C)c(C)c23)no1,-0.395
21,C=CCn1c(SCC(=O)N2CCOCC2)nc2sc3c(c2c1=O)CCCC3,-0.745
22,COc1ccccc1NC(=O)c1ccc(S(=O)(=O)N2CCCC2)cc1,active: 3.99

row,SMILES,z-score
1,O=C1N(O)C2(C=CCCC2)/C(=N\O)C12CCCCC2 (stereo not given),-0.112
2,COc1cc(/C=C2/C(=O)NN(c3ccc(Cl)cc3)C2=O)ccc1OC(=O)c1ccco1,-0.835
3,COc1ccc(CCNS(=O)(=O)c2cccc3nsnc23)cc1OC,0.233
4,C/C(=N\NC(=O)c1ccc(Cl)c(Cl)c1)c1ccc(Br)s1,1.19
5,COc1ccc(NC(=S)NC(NC(=O)c2ccc(Cl)cc2Cl)C(Cl)(Cl)Cl)c([N+](=O)[O-])c1 (stereo not given),-0.264
6,O=C(CCC1COc2ccccc2O1)Nc1ccccn1 (stereo not given),-0.203
7,CC(C)OC(=O)c1ccc(S(N)(=O)=O)o1,-0.121
8,CCC(C)NC(=O)NC(=O)N(C1CCCCC1)S(C)(=O)=O (stereo not given),0.407
9,O=C(Nc1ccc2nc(-c3ccc(Br)o3)[nH]c2c1)c1cccs1,-0.969
10,CCOC(=O)c1c(CN2CCOCC2)n(C)c2cc(Br)c(O)c(CN(C)C)c12,-0.443 and -0.878
11,CC(C)(C)C(=O)Cn1ncc(N2CCCC2)c(Br)c1=O,-0.119
12,O=C(Nc1ccccc1)OCCOc1ccccc1,0.244
13,CCOc1ccc(C2N(c3ccc(F)cc3)C(=O)C3CCCN32)cc1OC (stereo not given),-0.445
14,COC(=O)c1ccc(Oc2c(C)oc3c(CN4CCN(C)CC4)c(O)ccc3c2=O)cc1,-0.522
15,COCC(C)NC(=O)c1cccc(Cl)c1 (stereo not given),0.653
16,CCOC(=O)CSc1nnc([C@H](C)NC(=O)OC(C)(C)C)o1,0.47
17,COc1ccc2sc3c(=O)[nH]c4ccccc4c3c2c1,0.853
18,CCOc1ccccc1OCCOc1ccccc1OC(C)C,-0.189
19,CCCn1c(=O)n(N)c2ccccc21,-0.166
20,O=C(CSCc1ccccc1Br)N/N=C/c1ccc(OCC(=O)N2CCCCC2)cc1,-0.174
21,CCOC(=O)c1ccc(NS(=O)(=O)N2CCCCCC2)cc1,-0.322
22,CCn1c(=O)c(C(=O)NCc2ccc(OC)cc2)c(O)c2ccccc21,0.00466

row,SMILES,z-score
1,CCC(=O)N1CCN(c2ccccc2NC(=O)Cc2ccccc2)CC1,-0.0127
2,CCC(c1nnnn1CCOC)N(Cc1cc2cc(C)c(C)cc2[nH]c1=O)CC1CCCO1 (stereo not given),-0.47
3,CN(C)C(=S)SCC(=O)Nc1cccc(C(F)(F)F)c1,-0.692
4,CCOC(=O)N1CCN(C(=O)c2ccc(CNS(=O)(=O)c3ccc(C)cc3)cc2)CC1,-0.952
5,CCOC(=O)CN1c2ccccc2NC(=O)CC1C (stereo not given),-0.291
6,Cc1cc(-c2[nH]nc3c2C(c2ccsc2)C(C#N)=C(N)O3)c(C)s1 (stereo not given),-1.78
7,O=C(/C=C/c1cccs1)Nc1ccncc1,-0.142
8,CCOc1ccc(/C=C/C2=Cc3c(sc(NC(=O)CSc4n[nH]c(N)n4)c3C#N)C(C)(C)C2)cc1,-0.101
9,COC(=O)c1cc(NC(=O)Cn2c(=O)cnc3ccccc32)cc(C(=O)OC)c1,0.381
10,CCC(=O)N1CCN(c2nc(-c3ccccc3)c3c(c2C#N)CCCC3)CC1,-2.34
11,O=c1c2c(nc3c(-c4ccccc4)c[nH]n13)CCCC2,active: 3.66
12,CCN1CCN(C(=O)C2CCN(Cc3cc(Cl)ccc3O)CC2)CC1,-0.32
13,O=C(NCc1cccs1)C1CCCN(S(=O)(=O)c2cccs2)C1 (stereo not given),0.213
14,O=C(Cn1cnc2c(cnn2-c2ccccc2)c1=O)OCc1ccccc1,0.109
15,COc1ccc2[nH]c(C(=O)O)c(CCNC(C)=O)c2c1,1.48
16,CCCCNS(=O)(=O)c1ccc(NC(=O)C2c3ccccc3Oc3ccccc32)cc1,-0.165
17,COc1ccc(NC(=O)C2CCCN2S(=O)(=O)c2ccc(C)cc2)cc1 (stereo not given),-1.04
18,Cc1c(Cl)cccc1NC(=S)NCc1ccc(Cl)cc1,-0.0301
19,COC(=O)c1cc(Br)c(=O)n(CCN2CCOCC2)c1,-0.36
20,Cc1ccc(NC(=S)Nc2nc(CC(=O)Nc3ccccc3)cs2)cc1,0.0541
21,Cc1ccc(C(=O)ON=C2CCN(c3ccc([N+](=O)[O-])cc3)CC2)cc1,-0.427
22,O=C(CS(=O)(=O)Cc1ccccc1)Nc1ncccn1,0.476

row,SMILES,z-score
1,O=C1c2ccccc2C(Nc2ccc(F)c(Cl)c2)N1Cc1ccco1 (stereo not given),-0.196
2,O=C(CCN1C(=O)c2ccccc2C1=O)OCN1C(=O)c2ccccc2C1=O,-0.0495
3,CC(=O)c1cccc(NC(=O)CC2SC(N3CCCCC3)=NC2=O)c1 (stereo not given),-0.528
4,Cc1sc(NC(=O)CN(Cc2ccc(F)cc2)C(=O)C(C)(C)C)c(C(N)=O)c1C,1.19
5,COc1ccc(CNC(=O)c2cccc(N(C)C)c2)cc1,-0.0149
6,CCOc1ccc2[nH]c(=O)c(CN(Cc3ccco3)Cc3nnnn3Cc3ccccc3)cc2c1,-0.553
7,CCc1nc(N2CCCC2C(=O)O)c2oc3ccccc3c2n1 (stereo not given),0.0587
8,O=C(Nc1ccc(C(=O)N2CCCC2)cc1)Nc1ccc(Cl)cc1Cl,-0.466
9,O=C(/C=C/c1cccc([N+](=O)[O-])c1)NC(=S)Nc1ccc(CN2CCOCC2)cc1,-0.14
10,CCOc1ccc(/C(O)=C2\C(=O)C(=O)N(CCN(C)C)C2c2cc(OC)ccc2OC)cc1Cl (stereo not given),0.738
11,CCOc1cc2c3c(c1)C1(C(=O)N3C(C)(C)CC2C)C(C#N)=C(N)N2C(=C1C#N)Nc1ccccc12 (stereo not given),-0.341
12,O=C(NCc1cccs1)C1CCCN(S(=O)(=O)c2ccc3c(c2)OCO3)C1 (stereo not given),-0.181
13,CCCCCCC1CC(CCC(=O)Nc2ccc([N+](=O)[O-])cc2)C(=O)O1 (stereo not given),-0.115
14,C/C(N)=C(/C#N)C(=O)CSc1cc(Cl)ccc1Cl,-0.112
15,COC(=O)c1nn(C23CC4CC(CC(C4)C2)C3)c2c1C(=O)N(c1ccc(F)cc1)C2=O,-0.0402
16,CCOC(=O)C1C(c2ccc3c(c2)OCO3)NC(=O)NC1(O)C(F)(F)F (stereo not given),0.309
17,O=C1CCCC(=O)C1=C1SCCS1,-0.126
18,COc1ccc(OC)c(-n2c(CN3CCC(C(N)=O)CC3)nc3ccccc3c2=O)c1,0.343
19,CCc1cc(C(=O)NNC(=S)NCC2CCCO2)cs1 (stereo not given),0.102
20,CCOC(=O)CN1C(c2ccc(O)cc2)Nc2ccc(Br)cc2C1c1ccccc1 (stereo not given),-0.199
21,CCOc1ccc(OCC)c(S(=O)(=O)NNC(=O)c2c(C)nc3ccccn23)c1,-1.42
22,Cc1ccc(S(=O)(=O)NC(CC(=O)O)c2ccccc2)cc1 (stereo not given),-0.0583

row,SMILES,z-score
1,CC1CCC(=NNC(=O)Cc2ccccc2)CC1 (stereo not given),-0.025
2,COc1cc(NC(=O)C(=O)NNC(=O)C2CCCCC2)c(OC)cc1Cl,active: 3.98
3,O=C1CC(C(=O)N2CCOCC2)C2(CCCCC2)O1 (stereo not given),1.55
4,COC(=O)N/N=C/c1cn(CCCOc2ccc(C)cc2)c2ccccc12,-0.0934
5,CC(C)(C)N1CC(c2nc3ccccc3n2Cc2ccc(F)cc2)CC1=O (stereo not given),-0.126
6,CCc1cc2ccc(OC)cc2nc1SCC(=O)Nc1cc(C)on1,0.0439
7,COc1ccc(NC(=O)CCN2C(=O)c3ccccc3S2(=O)=O)cc1,1.12
8,COc1ccc(Cc2n[nH]c(=O)c3ccccc23)cc1OC,0.285
9,Cc1ccc(S(=O)(=O)NCCOC(=O)Nc2sc(=S)n(C)c2C)cc1,-0.14
10,CNC(=O)COC(=O)c1cc(NC(=O)c2ccco2)c(OC)c(OC)c1,-0.166
11,CCC(c1nnnn1C(C)C)N1CCN(C2CCCC2)CC1 (stereo not given),-0.133
12,CCNc1nc(C)cc(COC)c1C#N,0.507
13,Cn1c(=O)oc2cc(S(=O)(=O)N3CCc4ccccc4C3)ccc21,0.149
14,Cc1[nH]ccc(=O)c1OCc1c(Cl)cccc1Cl,-0.261
15,CCOC(=O)C1=C(Nc2ccccc2)CC(C)(O)C(C(=O)OCC)C1c1ccc(Cl)cc1 (stereo not given),-0.445
16,CCn1c(O)c(/C=N/N=C2CCCC2)c2ccc(C3=NNC(=O)CC3)cc21,-0.164
17,CCOc1c(Cl)cnn(-c2ccc(C)cc2)c1=O,1.19
18,CCc1nc(-c2ccc(-c3ccc(OC)cc3)nc2OC)no1,0.18
19,Cn1nnnc1SCC(=O)N1CCN(c2cccc(Cl)c2)CC1,-0.0243
20,Cc1ccc2c(CC(=O)N3CCN(S(=O)(=O)c4ccc5c(c4)OCCO5)CC3)coc2c1,-0.362
21,CCc1ccc(C(=O)COc2ccc(NC(C)=O)cc2)cc1,-0.096
22,Cc1ccc(NC(=O)c2noc3c2CCCCC3)cc1,-0.00303
